Reference: PubChem BioAssay AID1159614 (National Center for Advancing Translational Sciences (NCATS), 2016)
Out of some 45,000 compounds screened, about 65 (0.1%) were called active. Calls follow the shape of the dose curve; as a rule, active = well fitted activation curve with a large enough effect; inconclusive = small, poorly fitted or top-dose-only effect; inactive = no such curve, though single readings can be large or run the other way. The list shows a part of the results.

target: Galactocerebrosidase (Homo sapiens) (UniProt P54803); experiment: A Novel Cell-Based Assay to Identify Small Molecules for B -Galactocerebrosidase; details: 145M-Twi-hGALC-G270D cells (Twitcher mouse brain line with human GALC G270D), HMU-beta-Gal fluorescence, 48 h; series mostly up to 57.5 µM; activation: at the top concentration; also: 0% is about no effect; nearly all actives have a fitted effect of over 65% in size
How it was run: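 Fluorogenic HMU-b-Gal hydrolysis (0.1 mM final, pH 5.2 citrate-phosphate with 1 mg/mL sodium taurocholate; carbonate stop buffer) measures mutant GALC activity after compound treatment of live 145M-Twi Twitcher brain cells stably carrying human GALC-G270D, with wild-type GALC line alongside; activation sought.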

Sequence of UniProt P54803 (P54803 whole entry, looked up): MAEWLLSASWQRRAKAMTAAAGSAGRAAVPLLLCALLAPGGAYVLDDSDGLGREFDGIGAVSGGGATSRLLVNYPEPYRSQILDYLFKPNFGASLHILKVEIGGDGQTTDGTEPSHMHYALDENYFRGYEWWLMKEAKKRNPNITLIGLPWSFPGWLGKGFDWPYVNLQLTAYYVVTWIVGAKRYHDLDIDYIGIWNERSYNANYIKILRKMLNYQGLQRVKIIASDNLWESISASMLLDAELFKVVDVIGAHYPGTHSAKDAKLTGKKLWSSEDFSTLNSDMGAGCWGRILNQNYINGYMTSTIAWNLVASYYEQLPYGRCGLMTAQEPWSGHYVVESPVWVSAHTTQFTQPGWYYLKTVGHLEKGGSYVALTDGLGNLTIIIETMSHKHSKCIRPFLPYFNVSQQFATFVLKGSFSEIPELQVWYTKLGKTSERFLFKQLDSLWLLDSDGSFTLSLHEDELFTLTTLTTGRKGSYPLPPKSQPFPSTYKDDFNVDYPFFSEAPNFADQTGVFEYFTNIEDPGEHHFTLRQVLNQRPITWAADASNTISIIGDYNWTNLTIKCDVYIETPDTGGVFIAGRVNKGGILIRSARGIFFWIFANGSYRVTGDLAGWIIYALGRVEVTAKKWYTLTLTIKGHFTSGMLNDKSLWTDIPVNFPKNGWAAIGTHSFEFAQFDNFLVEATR

activation, inactive:
Cc1cc(-c2ccc(C)c(S(=O)(=O)NC(c3cccs3)C(C)C)c2)on1 (stereo not drawn) -27.9%
CC1=C(C(=O)N2CCN(c3cc(C)ccc3C)CC2)C2(CCC(C)CC2)OC1=O (stereo not drawn) -3.93%
COc1ccc(C(C(=O)NCc2ccccc2)N(C(=O)Cn2nnc3ccccc32)c2cccc(OC)c2)cc1 (stereo not drawn) -11.1%
CCc1nnc(SCc2c(F)cccc2Cl)c2cc3sccc3n12 -9.1%
CC(C)CCNC(=O)c1ccc2c(c1)NC(=O)C(CS(=O)(=O)Cc1ccc(F)cc1)N2 (stereo not drawn) -11.4%
Cc1ccc(NC(=O)Cn2cc(C(=O)C3CC3)c3ccccc32)c(C)c1 -8.64%
O=c1oc2c(CN3CCN(CCO)CC3)c(O)ccc2cc1-c1ccccc1 -23.1%
COc1ccc(Cn2ccc3nc(C)c(C(=O)NCc4ccc(F)cc4)cc3c2=O)cc1 -6.79%
Cc1ccc2c(=O)cc(C(=O)Nc3sc4c(c3C(=O)NCc3cccnc3)CCCC4)oc2c1C -14.1%
Fc1ccc(-c2noc3ncnc(NCCCN4CCN(c5ccccc5)CC4)c23)cc1 2.18%
CCc1cc(C(=O)Nc2cnn(Cc3ccccc3C)c2)no1 -21.2%
COc1ccc(S(=O)(=O)NCC(c2ccco2)N2CCOCC2)cc1OC (stereo not drawn) -0.669%
COc1ccc(-c2nc3c(C#N)c[nH]n3c2NC2CCCC2)c(OC)c1 -17.8%
Cc1ccc(NC(=O)CCc2c(C)nc3cc(-c4ccccc4)nn3c2C)cc1F -11.1%
COc1cccc(NC(=O)CC2NCCNC2=O)c1 (stereo not drawn) -2.89%
COc1ccc(C(=O)NCC(c2ccc(N(C)C)cc2)N2CCc3ccccc32)c(OC)c1 (stereo not drawn) -19.6%
CCn1cc(C(=O)OCC(=O)Nc2cccc(C(C)=O)c2)c(=O)c2ccc(C)nc21 27.7%
OCCN1C[C@H](O)[C@@H](O)[C@H](O)[C@H]1CO -7.17%
CCOc1ccc(C2CC(=O)Nc3c2c(=O)nc(SCc2ccccc2C)n3C)cc1OC (stereo not drawn) -12.7%
CCOC(=O)c1c(S(=O)(=O)N2CCCC(C(=O)Nc3cccc(C)n3)C2)c(C)n(C)c1C (stereo not drawn) -16.3%
COc1ccc(Cn2c(=O)c3oc4ccccc4c3n(Cc3ccc(Cl)cc3)c2=O)cc1 -4.6%
COCCCNc1oc(-c2ccc(COc3ccc(Cl)cc3)o2)nc1C#N -10.4%
O=C(Nc1sc2c(c1C(=O)NCC1CCCO1)CCC2)c1cc(=O)c2ccccc2o1 (stereo not drawn) -17.7%
COc1ccc(CNC(=O)C2CCN(c3nc4ccccc4[nH]3)CC2)cc1OC -16.8%
CCCCCNC(=O)CCCCCn1c(=O)[nH]c2ccsc2c1=O -12.4%
Cc1ccc(NC(=O)CSc2nnc3scc(-c4ccccc4)n23)cc1 -12.9%
COC(=O)c1ccc(OCC2c3cc(OC)c(OC)cc3CCN2C(=O)c2ccc(F)cc2)cc1 (stereo not drawn) -20.2%
O=C(Cn1nnc(-c2ccccc2Cl)n1)Nc1ccc(Br)cc1 -20.1%
CCOCCc1nn2c(=O)cc(COC(=O)C3CCCCC3)nc2s1 -9.83%
CCOC(=O)c1c(C)[nH]c(C)c1S(=O)(=O)N1CCCC(C(=O)N2CCN(c3ccccc3)CC2)C1 (stereo not drawn) -16.8%
Cc1cccn2c(=O)c3cc(C(=O)NC(C)c4ccccc4)c(=N)n(CCCO)c3nc12 (stereo not drawn) 3.05%
Cc1ccc2c(=O)cc(C(=O)Nc3cccc(C(F)(F)F)c3)oc2c1C -8.8%
CCOc1ccc(CN2CCc3nc(Nc4ccc(OC)cc4OC)ncc3C2)cc1 -15.6%
O=C(NCCCN1CCN(c2ccc(F)cc2)CC1)c1ccc2nc(Cc3ccccc3)oc2c1 -14.3%
O=[N+]([O-])c1ccc(/C=N\O)o1 -16.1%
CCSC1=NC2(CCN(C(=O)NC3CCCCC3)CC2)N=C1c1ccc(Cl)cc1 -27.4%
CCC(=O)Nc1cccc(C(=O)OCc2cc(=O)n3nc(CC)sc3n2)c1 -6.34%
Cc1ccccc1Cn1c(CN2CCC(C(=O)NCCc3ccccc3)CC2)cc2ccccc21 2.07%
CCN(CC)CCCNC(=O)c1nn(C)c2c1CS(=O)(=O)c1ccccc1-2 -4.34%
COc1ccc2c(c1)c1c(c(=O)n(CCc3ccccc3)c(=O)n1Cc1ccc(F)cc1)n2C -4.77%
COc1ccc(NC(=O)c2c(-c3ccc(C)cc3)nnc3ccccc23)c(OC)c1 1.92%
CCN(CC)c1nc2ccccc2nc1C(=O)Nc1cccc(C(C)=O)c1 -21.2%
Cc1ccc2sc(NC(=O)c3ccc4c(c3)OCCO4)nc2c1C -3.35%
COc1ccc2c(c1)c1c(c(=O)n(-c3ccc(F)c(Cl)c3)c(=O)n1Cc1ccccc1C)n2C 3.7%
Cc1oc2ncn(C)c(=O)c2c1C(=O)N1CCN(c2ccccc2F)CC1 -11.8%
CCN1C(=O)c2ccccc2Sc2ccc(NC(=O)c3ccc(Cl)cc3)cc21 -17.3%
Cc1ccc(NC(=O)c2sc3nc4c(cc3c2N)CN(Cc2ccccc2)CC4)cc1 1.15%
Cc1cccc(NS(=O)(=O)c2ccc3c(c2)C(C)(C)C(=O)N3C)c1 -14.5%
CCc1nn(Cc2ccc(Cl)cc2)c(=O)c2cc3cc(C)ccc3n12 0.103%
Cc1cccc(-c2nc3c4ccccc4nc(N4CCN(c5cc(C)ccc5C)CC4)n3n2)c1 -4.23%
Cc1cccc(N2CCN(C(=O)CCn3c(=O)c4cccn4c4cccnc43)CC2C)c1 (stereo not drawn) -3.65%
O=C(Nc1cccc(Cl)c1)c1cc2c(=O)[nH]c3ccccc3c2s1 -10.3%
COc1cccc(C(=O)Nc2cccc(-c3cn4c(C)csc4n3)c2)c1OC -10%
CCOc1ccc(-c2nn(CC(=O)NC3CCCC3)c3c2cnc2ccc(F)cc23)cc1 -15.2%
CCc1ccccc1NC(=O)c1cnc2sc(N3CCCC3)nn2c1=O 1.6%
O=C(Nc1ccc(-c2cn3cccnc3n2)cc1)c1cc(Br)ccc1Cl 4.19%
Cc1nnc(N2CCCC(C(=O)NCCc3ccc(Cl)cc3)C2)c2nn(-c3ccccc3)c(C)c12 (stereo not drawn) -5.05%
CC1=C(C(=O)Nc2ccc(C)cc2C)C(c2cccs2)n2nc(SCc3ccccc3Cl)nc2N1 (stereo not drawn) -10.3%
COc1ccc(CN2C(=O)c3ccccc3C2C(=O)NCCc2ccccc2)c(OC)c1 (stereo not drawn) -9.8%
CC(C)CCNC(=O)CN1N=C(c2ccc(Cl)cc2)CCC1=O -2.76%
CC(=O)OCC[N+](C)(C)C -16.9%
COc1cccc(N2CCN(C(=O)Cn3c(-c4cccs4)cc4ccccc43)CC2)c1 -0.243%
COc1ccc(CNc2oc(-c3ccc(COc4ccccc4C)o3)nc2C#N)cc1 -14.2%
Cc1ccc(-c2nc(C)c(CCNS(=O)(=O)c3ccc(F)c(C(F)(F)F)c3)s2)cc1 0.93%
O=C(Nc1cccc(C(F)(F)F)c1)c1cc2ccc3cccnc3c2[nH]1 -11.8%
CCn1cc(C(=O)N2CCN(c3ccccc3F)CC2)c(=O)c2cc(S(=O)(=O)N(C)C)ccc21 -19.7%
CCOC(=O)c1c(C)[nH]c(CCC(=O)NCc2ccc(N(C)C)cc2)c1C -36.6%
Cc1cn2c(=O)cc(COC(=O)COc3ccccc3C)nc2s1 0.437%
O=c1cc(-c2ccccc2)n2c(SCc3ccc(F)cc3)nnc2[nH]1 -37.7%
O=c1oc2ccccc2cc1-c1cn2cc(Cc3ccc(Cl)cc3)sc2n1 -12%
CCN(Cc1ccccc1)C(=O)Cn1c(=O)n(-c2ccc(C)c(C)c2)c(=O)c2c(C)c(C)sc21 0.862%
Cc1ccc(NC(=O)CN2C(=O)CCSc3ccc(S(=O)(=O)N4CCCC4)cc32)cc1C -16.8%
Cc1ccc(NC(=O)CSc2nc(-c3ccco3)cc(C(F)(F)F)n2)cc1 -5.69%
CC1=C(c2ccc(C)cc2)S(=O)(=O)NC1=NCCCN1CCN(c2ccc(F)cc2)CC1 -9.33%
Cc1ccc(C)c(OC(=O)CSc2nnc(CNC(=O)c3ccccc3)o2)c1 -15.6%
COC(=O)c1ccc(C2C(C(=O)Nc3ccccc3)=C(C)Nc3nc4ccccc4n32)cc1 (stereo not drawn) -4.42%
CCCSc1ncc(Cl)c(C(=O)Nc2c(C(=O)Nc3ccc(C)cc3)oc3ccccc23)n1 -3.37%
CC(=O)N1CCc2c(sc3nc(SCC(C)C)n(-c4ccc(F)c(Cl)c4)c(=O)c23)C1 -1.17%
CCc1nc(Oc2cccc(F)c2)c2oc3ccccc3c2n1 -11.8%
CCN(CC)c1ccc(NS(=O)(=O)c2cc3[nH]c(=O)c(=O)[nH]c3cc2C)c(C)c1 -8.23%
Cc1cc2oc(C(=O)Nc3ccc(S(=O)(=O)N4CCCCCC4)cc3)cc(=O)c2cc1C -15.7%
Cc1ccc(NC(=O)Nc2nnc(N(C)Cc3ccccc3)s2)c(C)c1 -9.23%
CCN(CC)c1ccc(NC(=O)CSc2nc(-c3cccs3)cc(C(F)(F)F)n2)cc1 -14%
CC(C)c1ccc(OC(=O)c2cc(-c3ccccc3)on2)cc1 -19%
COc1ccc(Cn2c(=O)c3oc4ccccc4c3n(CC(=O)Nc3ccc(F)cc3F)c2=O)cc1 -8.65%
O=C(NCCc1ccccc1Cl)c1ccc2c(c1)nc1n2CCCCC1 -2.59%
CCN(CC)c1ccc(-c2nc(-c3ccccc3C)no2)cc1[N+](=O)[O-] -24.8%
Cc1ccc(C)c(Cn2c(C3CC(=O)N(c4ccccc4C)C3)nc3ccccc32)c1 (stereo not drawn) -41.9%
CC1=C(C(=O)Nc2ccccc2)C(c2cccn2C)n2ncnc2N1 (stereo not drawn) -21.9%
Cc1ccc(Nc2nc(C)nc(N)c2S(=O)(=O)c2ccccc2)cc1 -4.34%
Cc1ccc(CNC(=O)CSc2n[nH]c(-c3ccc(F)cc3)n2)cc1 -26.6%
O=S(=O)(c1ccc2nc(N3CCN(c4cccc(Cl)c4)CC3)ccc2c1)N1CCCCC1 -6.12%
Cc1cc(NC(=O)C2CCN(S(=O)(=O)c3ccc(Br)s3)CC2)ccc1Br 0.823%
Cc1ccc(Cl)cc1N1CCN(Cc2nnc(-c3ccc4c(c3)OCO4)o2)CC1 -12.6%
COc1cc2c(=O)n(CCC(=O)NCC3CCCO3)c(=O)n(CC(=O)Nc3ccc(C)c(C)c3)c2cc1OC (stereo not drawn) -0.547%
CCC(C)NC(=O)c1nn(-c2ccc(C)cc2)c(=O)n(C)c1=O (stereo not drawn) -14%
COc1ccc(-c2cc(C(F)(F)F)n3nc(C(=O)Nc4ccccc4SC)cc3n2)cc1OC -9.96%
Cc1ccc(OCC(=O)N(Cc2ccco2)Cc2ccc(C)o2)cc1 10.5%
